Reference: PubChem BioAssay AID1745853 (National Center for Advancing Translational Sciences (NCATS), 2022)
“And” between values parts separate entries of the source, which are not always exact repeats. Equal entries are not always repeated. This is one part of the list. Shown are side measurements of this screen, not its main read-out; they come without a call.

Columns and labels:
Experiment in all cases: Primary Screen for Target Class Profiling of Small Molecule Inhibitors of Methyltransferases
[1] = target: Glycine N-methyltransferase (Homo sapiens) (UniProt Q14749); details: purified enzyme, MTase-Glo SAH luminescence; measured here: GNMT inhibition; at 40 µM; stronger effect = lower value
Outline: (§1)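 Each enzyme was assayed with SAM and its substrate. SAH formation detected by MTase-Glo luminescence; single-point 40 uM screen[…].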

[2] = target: Guanidinoacetate N-methyltransferase (Homo sapiens) (UniProt Q14353); details: purified enzyme, MTase-Glo SAH luminescence; measured here: GAMT inhibition; at 40 µM; stronger effect = lower value
Outline: as §1

[3] = target: Histamine N-methyltransferase (Homo sapiens) (UniProt P50135); details: purified enzyme, MTase-Glo SAH luminescence; measured here: HNMT inhibition; at 40 µM; stronger effect = lower value
Outline: as §1

[4] = target: Nicotinamide N-methyltransferase (Homo sapiens) (UniProt P40261); details: purified enzyme, MTase-Glo SAH luminescence; measured here: NNMT inhibition; at 40 µM; stronger effect = lower value
Outline: as §1

[5] = target: Phenylethanolamine N-methyltransferase (Homo sapiens) (UniProt P11086); details: purified enzyme, MTase-Glo SAH luminescence; measured here: PNMT inhibition; at 40 µM; stronger effect = lower value
Outline: as §1
% is scaled to controls: 0 for no effect and ±100 for the full control effect.

Compound | activity change, negative = inhibition [1] | activity change, negative = inhibition [2] | activity change, negative = inhibition [3] | activity change, negative = inhibition [4] | activity change, negative = inhibition [5]
CC1OC(O[C@H]2CC[C@@]3(C)C(CC[C@]4(C)C3CC=C3C5CC(C)(C)CC[C@]5(C(=O)OC5OC(CO)C(OC6OCC(OC7OCC(O)C(O)C7O)C(O)C6O)C(O)C5O)CC[C@]34C)C2(C)C)C(O)C(O)C1OC1OC(CO)C(O)C(OC2OC(CO)C(O)C(O)C2O)C1O (stereo partly drawn) | -2.63% | -1.94% | -5.17% | -7.36% | 1.15%
O=C(CCc1nnn2c1CN(C(=O)NCc1ccccc1)CC2)N1CCCC1 | 2.05% | -0.796% | -0.86% | -0.62% | -10.3%
CC1CCN(S(=O)(=O)c2ccc3c(ccn3CC(=O)NCc3ccccc3Cl)c2)CC1 | 2.24% | 0% | 2.49% | -1.75% | 1.27%
O=C(Cn1c(=O)oc2cc(S(=O)(=O)NCc3ccccc3)ccc21)NCc1ccc(Cl)cc1 | -6.1% | 0.652% | -8.26% | -14.9% | -5.47%
O=C(O)c1ccc(OC2OC(CO)C(O)C(O)C2O)cc1 (stereo not drawn) | 3.55% | 0.517% | 10.6% | -13.3% | 5.21%
O=C(NCC1CN(c2ccc(N3CCOCC3=O)cc2)C(=O)O1)c1ccc(Cl)s1 (stereo not drawn) | -6.46% | -7.4% | -0.946% | -20.1% | -5.34%
C[C@@H](N)c1ccc(C(=O)Nc2ccnc3[nH]ccc23)cc1 | 2.69% | 4.63% | 4.89% | -14.8% | 4.26%
COc1ccccc1CNC(=O)c1cc2n(n1)CC(C)(C(=O)NC1CCCCC1)N(C)C2=O (stereo not drawn) | 6.95% | 0% | 2.83% | 8.81% | 2.73%
Nc1ccc(S(=O)(=O)Nc2ccnn2-c2ccccc2)cc1 | -2.27% | 6.19% | 0.111% | -3.25% | 5.14%
O=C(O)c1ccc(CN2CCC(CN[C@@H]3C[C@H]3c3ccccc3)CC2)cc1 | -3.43% | 4.38% | -2.29% | -16.1% | -9.54%
CC(C)c1nnc(-c2ccc(-c3ccccc3)nc2)n1-c1cccc2nonc12 | 4% | 5.84% | 11.8% | -19.3% | -4.58%
COc1ccc(CN2C(=O)c3cc(-c4ccco4)nn3CC2(C)C(=O)NC2CCCCC2)cc1 (stereo not drawn) | -1.92% | 5.29% | 3.66% | -8.13% | -1.14%
Cc1ccccc1CCN1C(=O)c2cc3ccccc3n2CC1(C)C(=O)NCCC(C)C (stereo not drawn) | -4.98% | 0.693% | -6.3% | -9.41% | -9.34%
CCN(CCCNC(=O)CCc1nnc2n(Cc3ccc(F)cc3)c(=O)c3ccccc3n12)c1cccc(C)c1 | -4.5% | 4.33% | -0.827% | 0.175% | -3.46%
COCCN1CC(CO)C2(CCN(C3CCC3)CC2)C1 (stereo not drawn) | -3.35% | -3.82% | -7.13% | -6.81% | -0.716%
CC1(C(=O)NC2CCCC2)Cn2c(ccc2-c2ccco2)C(=O)N1C1CC1 (stereo not drawn) | 6.36% | 0.368% | 7.95% | 14.7% | 4.43%
COc1cc(/C=C(\C#N)C(N)=O)cc(CSc2nc3ccccc3s2)c1O |  | -0.69% |  | -17.8% | 2.99%
CC(=O)c1ccc(OCC(=O)N2CCCCC2)cc1 | -7.66% | -11.3% | 3.73% | -14.6% | -3.7%
COCCNC(=O)c1ccc(OC2CCN(Cc3ccc(OC)cc3F)CC2)c(Cl)c1 | -5.05% | 0.39% | -20.1% | -5.53% | -0.357%

Compound | activity change, negative = inhibition [1] | activity change, negative = inhibition [2] | activity change, negative = inhibition [3] | activity change, negative = inhibition [4] | activity change, negative = inhibition [5]
O=C(CCc1nnc2n(CCc3ccccc3)c(=O)c3ccccc3n12)NCc1ccccc1Cl | -11.4% | -5.68% | -6.56% | -13.9% | -19.4%
C=CC(C)(O)CC/C=C(\C)C(=O)OC1CC2(C(=O)O)CCC3(C)C(=CCC4C5(C)CCC(OC6OC(COC7OCC(O)C(O)C7O)C(O)C(OC7OCC(O)C(O)C7O)C6OC6OC(CO)C(O)C(O)C6OC6OCC(O)C(O)C6O)C(C)(C)C5CCC43C)C2CC1(C)C (stereo not drawn) | 3.63% | 19.4% | 11.5% | 1.37% | 10%
C[C@H]1[C@@H]2[C@@H](O)C([C@H](C)C(=O)N3CCCC3)CC[C@@]2(C)CC[C@@H]1NC(=O)Nc1cccc(F)c1 (stereo partly drawn) | 2.19% | 2.14% | 1.16% | -0.491% | 3.77%
C=CC(C)(O)CC/C=C(\C)C(=O)O[C@@H]1[C@@H](O)[C@H](OC(C)(C=C)CC/C=C(\C)C(=O)O)O[C@H](CO)[C@H]1OC(=O)/C(C)=C/CCC(C)(O)C=C (stereo partly drawn) | -0.712% | 5.15% | 4.99% | -7.61% | 4.02%
CC(C)Cn1c(=O)c2ccccc2n2c(CCC(=O)N3CCN(C4CCCCC4)CC3)nnc12 | -9.88% | 6.31% | -21.7% | -19.4% | -2.23%
C=C1C[C@]23C[C@H]1CC[C@H]2[C@]1(C)CCC[C@@]2(CO)C(=O)O[C@H]([C@H]21)[C@@H]3O | 0% | 4.96% | 10.3% | -9.51% | 0.279%
CN1C(=O)c2cc(C(=O)NCc3ccccc3Cl)nn2CC1(C)C(=O)NC1CCCC1 (stereo not drawn) | 3.08% | 4.99% | -2.47% | 6.64% | 1.59%
CC1=CC(=O)CC(C)(CO)C1(O)/C=C/C(C)O[C@@H]1O[C@H](CO)[C@@H](O)[C@H](O)[C@H]1O (stereo partly drawn) | 4.99% | 0.843% | 8.75% | -6.88% | -1.45%
CC1=C(CC(=O)O)c2cc(F)ccc2C1=Cc1ccc(S(C)(=O)=O)cc1 | -17.7% | -3.94% | 10.2% | -13.3% | -0.697%
C#Cc1cccc(Nc2nc3cc(C(=O)O)ccc3c3cncnc23)c1 | -28.1% | -11.6% | -26.7% | -22.9% | -24.6%
CCCn1c(=O)c2cc(Cl)ccc2n2c(SCC(=O)Nc3ccc(OC)c(OC)c3)nnc12 | 3.24% | 6.05% | 6.16% | 0.016% | 4.58%
Cc1ccccc1Cn1nc2n(CCC(C)C)c(=O)c3ccccc3n2c1=O | 5.93% | 1.59% | 6.82% | -1.04% | 6.16%
CC1(C)C2CC[C@@]34CC(CC[C@H]3[C@]2(C)CC[C@@H]1O[C@@H]1O[C@H](CO)[C@@H](O)[C@H](O)[C@H]1O)[C@](C)(O)C4 (stereo partly drawn) | 7.51% | 7.22% | 8.79% | -6.13% | 2.87%
Nc1ncnc2c1nc(N)n2[C@@H]1O[C@H](CO)[C@@H](O)[C@H]1O | 94.5% | 177% | 26.3% | 178% | 51.2%
CCC(C(=O)NC1CC1)n1ccc2cc(S(=O)(=O)N3CCCCC3)ccc21 (stereo not drawn) | 2.37% | 3.66% | 5.29% | 4.05% | 3.58%
Cc1ccc(Cl)cc1N1C(=O)c2cc(-c3cccs3)nn2CC1(C)C(=O)NC1CCCCC1 (stereo not drawn) | 4.98% | 0% | 8.2% | 12% | 4.91%
CC1(NC(=O)C2CC2)CN(Cc2nc(-c3ccccc3OCc3ccccc3)cs2)C1 | -6.98% | -6.64% | -10.8% | -13.7% | -1.3%
O=C(c1cccs1)N1CCC2(CC1)CN(C1CCC1)CC2CO (stereo not drawn) | -5.25% | -8.67% | -5.03% | -12.8% | -5.72%
CCCCNC(=O)c1ncn2c1C(=O)N(CCC)C(C)(C(=O)NCCC(C)C)C2 (stereo not drawn) | 3.95% | 0.505% | 7.87% | 8.43% | 9.47%

Compound | activity change, negative = inhibition [1] | activity change, negative = inhibition [2] | activity change, negative = inhibition [3] | activity change, negative = inhibition [4] | activity change, negative = inhibition [5]
COc1ccccc1CNc1nc2c(-c3cccc(Br)c3)nnn2c2ccccc12 | -9.41% | 0.03% | -1.76% | -8.72% | -7.1%
O=C(Cn1nc(-c2ccccc2)c2ccccc21)N1CCN(c2ccccc2F)CC1 | -7% | 0% | -4.24% | 0.306% | -2.85%
COc1cccc(Nc2cc(C(=O)NCc3cccnc3)c3c(c2)ncn3C)c1 | -8.87% | -1.61% | -39.3% | -9.59% | -8.32%
CCOc1ccc(NC(=O)N2Cc3c(sc4c3CCCC4)-n3cccc3C2c2ccccc2)cc1 (stereo not drawn) | -0.596% | 0% | 0.42% | -1.76% | 1.6%
C/C=C(\C)C(=O)O[C@H]1C=CC(=O)O[C@H]1/C=C/[C@@H](O)[C@H](C)O | -1.13% | -7.66% | 4.18% | -16.4% | 0.602%
CC1(C(=O)NC2CCCCC2)Cn2c(cc3occc32)C(=O)N1Cc1cccc(F)c1 (stereo not drawn) | 4.26% | 0.585% | 5.91% | 3.89% | 5.59%
CCC1CCCCN1S(=O)(=O)c1ccc2c(c1)n(C)c(=O)n2C (stereo not drawn) | -2.63% | 2.29% | -9.42% | -15.8% | -10.6%
COc1ccc(-c2cc3n(n2)CC(C)(C(=O)NCc2ccccc2)N(c2ccc(C(C)C)cc2)C3=O)cc1 (stereo not drawn) | 8.01% | 0% | 9.84% | 11.3% | 1.57%
CC(C)(C)[C@]1(O)CCN2C[C@H]3c4ccccc4CCc4cccc(c43)[C@@H]2C1 | 0.471% and -8.64% | 14.7% and 18.2% | -15.4% and -26.6% | -7.54% and -10.4% | 5.15% and 5.54%
Nc1nc2[nH]c(=O)cnc2c(=O)[nH]1 | -8.03% | -2.16% | -3.12% | -10.4% | -0.185%
CCNC(=O)[C@H]1O[C@H](n2cnc3c(NCC(c4ccccc4)c4ccccc4)nc(C(=O)NCCNC(=O)NC4CCN(c5ccccn5)CC4)nc32)[C@H](O)[C@@H]1O | -3.07% | 20.5% | -17.5% | -6.07% | 9.04%
C=CCN1CCN(C(=O)C2N(c3ccc(OC)cc3)C(=O)C23CCCCC3)CC1 (stereo not drawn) | -2.66% | -0.092% | 0.464% | -0.51% | 14.5%
Cc1ccc(CNC(=O)CSc2nnc3n(Cc4ccccc4)c(=O)c4ccccc4n23)cc1 | -1.27% | -0.982% | 5.68% | -10.8% | -4.15%
Cc1ccc(CNC(=O)C(C)n2ccc3cc(S(=O)(=O)N4CCCC4)ccc32)cc1 (stereo not drawn) | 2.24% | 1.97% | -1.64% | -4.4% | -2.71%
CC(C)CNC(=O)c1ccc2c(=O)n(C(C)C)c3nn(CC(=O)Nc4ccccc4F)c(=O)n3c2c1 | -1.28% | 3.9% | -1.31% | -2.91% | 0.69%
CCCn1c(=O)c2cc(F)ccc2n2c(SCC(=O)Nc3cccc(OC)c3)nnc12 | -5.9% | 5.21% | 2.81% | 0.254% | 0.756%
CC(C)CCNC(=O)C1(C)Cn2c(cc3ccccc32)C(=O)N1Cc1ccccc1F (stereo not drawn) | 3.27% | 0% | 2.31% | 4.34% | -1.23%
Cn1c(=O)n(C)c2cc(S(=O)(=O)N(Cc3ccco3)C(=O)c3ccco3)ccc21 | 0.856% | 4.3% | 4.95% | -0.254% | 0.446%
